ChEMBL document CHEMBL4888484, “Replenishing the malaria drug discovery pipeline: Screening and hit evaluation of the MMV Hit Generation Library 1 (HGL1) against asexual blood stage Plasmodium falciparum ,using a nano luciferase reporter read-out” (2022)
About 540 (0.36%) of roughly 150,000 compounds showed an effect of 50% or more. The list shows a part of the results.

test system: Plasmodium falciparum; test: Primary screen in NF54 nanoGlo assay, in single point, at 2uM, 72h; a lower Z score goes with more inhibition; type: functional, Erythrocyte; settings: timepoint 72 hour

Row | Structure (SMILES) | % Inhibition [%] | Z score
1 | CCc1c(C(=O)NCCc2cccnc2C)cnn1C1CCCC1 | 6 | -0.77
2 | Cc1ccc(-n2ncc3c(N4CCc5ccccc5C4)ncnc32)cc1 | -2 | 0.3
3 | CCCOc1ccc(CN2C(=O)N[C@@](C)(CCC)C2=O)cn1 | -10 | 0.91
4 | Cc1nonc1CN(C)C(=O)c1c(CC2CCCC2)n(CCN(C)C)c(C)cc1=O | -4 | 0.52
5 | OCc1cccc(NCc2ncccc2C(F)(F)F)c1 | -5 | 0.61
6 | COn1c(-c2ccc(C)cc2)c(Cl)c2cc(C#N)c(C#N)cc21 | -12 | 1.4
7 | CCC(CC)(CNC(=O)C(C)(C)Cc1cnn[nH]1)OC | 4 | -0.7
8 | O=C(NCCN1CCNC1=O)Nc1ccnn1C1CCCCC1 | -3 | 0.64
9 | CNC(=O)c1cccc(CCNCc2cnc(C)n2-c2ccccc2)c1 | -2 | 0.26
10 | CN(C)CCN(C(=O)Nc1ccc(C(C)(C)C)cc1)C1CCOCC1 | 3 | -0.58
11 | Cc1c(Cl)cccc1NC(=O)N1CCCn2nc(-c3cccn3C)cc21 | -14 | 1.8
12 | CC[C@@](C)(COc1ncccc1Cl)NC(=O)Nc1ccc(OC)cc1C | 10 | -1.16
13 | COCCN(Cc1ccoc1)S(C)(=O)=O | -12 | 1.54
14 | NC(=O)Nc1ccc(NC(=O)c2cc3c(s2)CCCCC3)cc1 | -2 | 0.3
15 | CC(C)/C=C/CN(C)CC1(CO)CCOCC1 | -7 | 1.17
16 | CC(C)(C)NC(=O)CCC1CCCCC1 | -21 | 3.34
17 | CCC1Oc2cc(C(C)NC(=O)N3CC=C(C)CC3)ccc2NC1=O (stereo not drawn) | -10 | 1.28
18 | O=C(NCCc1noc2ccccc12)NC1COC(C2CC2)C1 (stereo not drawn) | -11 | 1.76
19 | Cc1ccc(CCCNS(C)(=O)=O)cc1 | -19 | 1.77
20 | COc1ccc2c(c1)CCc1c-2n[nH]c1-c1ccc(C(=O)NCCCN2CCCC[C@@H]2C)cc1 | -1 | 0.21
21 | CCN(C[C@H]1CCN(C(=O)c2cc[nH]n2)C1)CC(F)(F)F | -8 | 1.23

Row | Structure (SMILES) | % Inhibition [%] | Z score
22 | CCOc1cccc(Cn2c(=O)c3sccc3n(CC(=O)Nc3nccs3)c2=O)c1 | 26 | -2.88
23 | CC[C@H](C)[C@@H]1NC(=O)N([C@H]2C[C@H](c3ccccc3C)C2)C1=O | -15 | 1.65
24 | CCC(=O)Nc1cc(C(=O)N(CC)C[C@H]2CCCO2)c2c(c1)nc(Cc1ccccc1)n2C | -7 | 1.29
25 | Cc1ccc(S(=O)(=O)N2CCN(S(C)(=O)=O)C2)cc1 | 36 | -4.08
26 | Cc1n[nH]c2ncc(NC(=O)c3scnc3C(C)(C)C)cc12 | -12 | 1.43
27 | NC(=O)NC(=O)C1CCC(Nc2nccs2)CC1 (stereo not drawn) | -3 | 0.31
28 | O=C1CCCN1c1ccc(S(=O)(=O)N2CCc3[nH]c4ccccc4c3C2)cc1 | -8 | 0.73
29 | CCN(CC)c1cc(-n2nc(C(F)(F)F)cc2-c2ccccc2)ncn1 | 28 | -3.15
30 | CCc1ccc(NC(=O)N2CCC(c3ccc4cccnc4n3)CC2)cc1OC | 2 | -0.31
31 | Cc1ccc(Cl)cc1NC(=O)c1cc(C2CC2)nc2onc(C3CC3)c12 | 5 | -0.78
32 | Cc1ccc(C(=O)N2CCO[C@@H](CC3CCCCC3)C2)c(=O)[nH]1 | 3 | -0.54
33 | C=CCCC(=O)Nc1cccc(-c2ncc(C)o2)c1 | -14 | 1.34
34 | Cc1ccc(OCC(N)=O)c(-c2cccc([C@H](C)N3CCCC3)c2)c1 | 1 | -0.27
35 | CC[C@H]1CCCCN1C(=O)c1cnc2nc(C)ccc2c1Nc1ccc2c(c1)OCO2 | -9 | 1.48
36 | O=C(NC[C@H](O)CN1CCCC1)c1conc1-c1ccccc1 | -17 | 2.35
37 | COc1ccc(-c2ccc(=O)n([C@H]3CCc4ccccc4NC3=O)n2)cc1 | 31 | -3.48
38 | Cc1c(C(=O)N[C@H]2CC[C@@H](CO)C2)nnn1-c1ccc(F)c(F)c1 | 35 | -3.91
39 | CCN1CCN(C(=O)c2ccc(N(C)C)cc2)[C@H]2CS(=O)(=O)C[C@H]21 | -11 | 2.11
40 | CCO[C@H]1CN(C(=O)c2cc(C)n(C)c2C)C[C@@H]1O | 0 | -0.03
41 | Cc1ccc(C(=O)N(C)c2cnn(C)c2)c(Br)c1 | 2 | -0.22
42 | Cc1cnccc1Cn1cc(CN2CC[S+]([O-])CC2)nn1 | 6 | -1.17

Row | Structure (SMILES) | % Inhibition [%] | Z score
43 | CC(=O)N1CCC(Cc2ccc(CN(Cc3cccc(F)c3)C3CC3)cc2)CC1 | -17 | 3.24
44 | Cc1nn(C)c(C)c1OC(=O)OC(C)(C)C | -4 | 0.48
45 | CC(C)c1ncc(C(=O)N2CCC[C@H](CCc3ccc(F)cc3F)C2)c(=O)[nH]1 | -13 | 1.25
46 | C[C@@H](CNC(=O)C1(C#N)CCCC1)Oc1ccccc1 | -6 | 0.57
47 | COC(CN(c1ccccc1)S(=O)(=O)c1ccc(F)cc1)C1CCOC1 (stereo not drawn) | -4 | 0.64
48 | NC(=O)c1nnn(-c2ccc(NC(=O)C(c3ccccc3)c3ccccc3)cc2)n1 | -7 | 1.26
49 | CC1(C)COCCN1CC1CCOCC1 | 4 | -0.45
50 | COc1ccc(NC(=O)C(=O)c2cccn2Cc2ccc(C)cc2)c(OC)c1 | -13 | 1.24
51 | CC(C)NC(=O)CC1(CN2Cc3ccccc3C2=O)CCCCC1 | -9 | 1.32
52 | COc1ccc(-c2ccc3c(c2)C(=O)N2CC[C@H](NC(=O)C4CCCC4)[C@H]2C(=O)N3)cc1 | 31 | -3.55
53 | CC1=NN(c2ccccc2)C(=O)C12Cc1cc(C(F)(F)F)ccc1N1CCN(c3ncccn3)CC12 (stereo not drawn) | 4 | -0.52
54 | COCCNC(=O)NCCn1nc(C2CC2)ccc1=O | -14 | 2.89
55 | O=C(c1ccc2c(c1)OCCO2)N1CCN(Cc2ccccc2)CC1 | -6 | 0.72
56 | c1ccc(-c2ccc(-c3nc4nc(-c5ccccc5)c(-c5ccccc5)nn4c3-c3ccccc3)cc2)cc1 | -17 | 1.82
57 | CC(NS(=O)(=O)c1ccc2c(c1)OCCCO2)C1CCCO1 (stereo not drawn) | -3 | 0.44
58 | CCC(=O)N1CCc2c(C(=O)NCc3ccc(N4CCN(C)CC4)cc3)cccc21 | 2 | -0.19
59 | CC1(C)CC(NC2CCN(C3CCCC3)C2)CO1 (stereo not drawn) | 11 | -1.32
60 | CC(C)(C)c1nc([C@H]2CC23CCC3)n(CCO)n1 | 0 | 0.01
61 | CC(O)(CNC(=O)C1CC(=O)N(c2ccccc2Br)C1)CN1CCOCC1 (stereo not drawn) | -3 | 0.47
62 | O=C(Nc1ccccc1OC[C@H]1CCCCO1)N1CCOCC1 | 34 | -0.78
63 | Cc1ncc(CNC(=O)N2CCC3(C=Cc4ccccc4O3)CC2)o1 | -17 | 1.81

Row | Structure (SMILES) | % Inhibition [%] | Z score
64 | CCc1noc(C)c1COc1cnn(C)c1 | -3 | 0.45
65 | O=C(COC[C@H]1CCCO1)N1CCC2(CCC(=O)N(Cc3ccccn3)C2)CC1 | 4 | -0.67
66 | CC(C)CCNC(=O)[C@]1(C)Cn2nc(C(=O)NCc3ccccc3F)cc2C(=O)N1C | 15 | -1.76
67 | CC1CN(S(=O)(=O)CC2CCOC2)c2ccc(F)cc2O1 (stereo not drawn) | 39 | -5.6
68 | CNC(=O)c1nc(CN2CCO[C@@H](CCCc3ccccc3)C2)no1 | -15 | 3.1
69 | CCCN1CCCn2nc(CNC(=O)Nc3ccc(C)cc3C)cc2C1 | -11 | 1.62
70 | Cc1nnc(-c2cccc(NC(=O)C3CCN(C(=O)C#Cc4ccccc4)CC3)c2)s1 | -6 | 0.87
71 | CCOC(=O)[C@H]1CCCN(c2nccn3nc(-c4ccccc4C)cc23)C1 | -5 | 0.68
72 | CC1C(C)N(C(=O)c2cn(C)nn2)C(C)CN1C(=O)OC(C)(C)C (stereo not drawn) | -5 | 1.04
73 | CCOc1ccccc1CN1C[C@H]2CC[C@@H](C1)N(CC(=O)N(C)C)C2=O | 9 | -1.19
74 | CCC[N+](C)(C)C(C)C(OC(C)=O)c1ccccc1 (stereo not drawn) | 4 | -0.47
75 | CC(C(=O)Nc1ccc2c(c1)C(O)CC2(C)C)N(C)CC(F)(F)F (stereo not drawn) | -2 | 0.47
76 | CC1CN(C(=O)Nc2ccc(Oc3ccncc3)cc2)CC(C)O1 (stereo not drawn) | -13 | 1.16
77 | O=C(c1nc(=O)[nH]c2ccccc12)N1CCC(c2nccn2CC2CC2)CC1 | -8 | 0.77
78 | CC(=O)Nc1cccc(NC(=O)C2CCN(S(=O)(=O)Cc3ccccc3F)CC2)c1 | -6 | 1.17
79 | CCOCCCNC(=O)N[C@@H](C)CCc1ccc(OC)cc1 | -10 | 0.92
80 | Cc1[nH]ncc1C(=O)N(Cc1cccnc1)Cc1ccco1 | -8 | 0.66
81 | O=C1CCCN1[C@H]1CCCN(c2nccc3c(=O)[nH]cnc23)CC1 | -3 | 0.32
82 | O=C1CCC[C@H](C(=O)Nc2cnn(CC(F)(F)F)c2)N1 | 31 | -0.52
83 | CN(Cc1ccc2cn[nH]c2c1)[C@H]1CCCN(Cc2ccc3cn[nH]c3c2)CC1 | 9 | -1.4
84 | CCO[C@@H](C)C(=O)NCc1sc(C)nc1CC | -9 | 1.13
